Assay results: publication PMC4577084
Results are given in words; binding and its absence hold for the method and conditions named. For part of these data: In cells and extracts the contact can be indirect. Some results given as binding are weak or reduced against the parent protein; the word gives no strength. For part of these data: Sequences can lack the tags named with a protein. Each block holds one binder with its values, some of them ahead of it.

How the values were obtained:
[1] = molecular target: T1, SPATULA (SPT)-YFPN (Arabidopsis thaliana) (UniProt Q9FUA4); experiment: split reporter; BiFC: fusions with YFP N- or C-terminal half (pSPYNE-35S, pSPYCE-35S) co-introduced into the abaxial side of Nicotiana benthamiana leaves; imaged 48 h after co-infiltration; YFP fluorescence in nuclei
T1 sequence: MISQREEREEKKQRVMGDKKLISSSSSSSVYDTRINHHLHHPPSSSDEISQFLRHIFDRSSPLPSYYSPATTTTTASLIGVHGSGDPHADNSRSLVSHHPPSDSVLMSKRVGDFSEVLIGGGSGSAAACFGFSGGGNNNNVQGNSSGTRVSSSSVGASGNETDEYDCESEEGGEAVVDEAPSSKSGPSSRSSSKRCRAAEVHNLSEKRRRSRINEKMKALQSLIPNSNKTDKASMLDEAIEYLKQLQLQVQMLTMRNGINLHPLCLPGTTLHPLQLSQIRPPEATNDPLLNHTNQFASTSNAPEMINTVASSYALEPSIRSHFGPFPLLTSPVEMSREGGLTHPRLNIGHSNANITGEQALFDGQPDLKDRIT

[2] = molecular target: T2, KNAT1/B…US (BP) fused with a half of YFP (BiFC) (Arabidopsis thaliana) (UniProt P46639); experiment: as above
T2 sequence: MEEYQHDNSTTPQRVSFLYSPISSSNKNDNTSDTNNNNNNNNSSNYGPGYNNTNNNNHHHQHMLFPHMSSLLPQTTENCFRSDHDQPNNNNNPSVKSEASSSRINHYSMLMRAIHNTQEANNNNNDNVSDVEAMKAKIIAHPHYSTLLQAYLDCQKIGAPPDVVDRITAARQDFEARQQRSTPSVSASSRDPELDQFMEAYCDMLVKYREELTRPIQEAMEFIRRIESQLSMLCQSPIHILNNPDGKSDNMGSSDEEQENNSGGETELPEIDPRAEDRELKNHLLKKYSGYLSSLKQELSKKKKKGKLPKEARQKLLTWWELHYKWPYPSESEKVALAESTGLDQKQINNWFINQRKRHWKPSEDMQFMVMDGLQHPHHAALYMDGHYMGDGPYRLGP

[3] = molecular target: T3, KNAT1/B…US (BP), yeast two-hybrid fusion (Arabidopsis thaliana) (UniProt P46639); experiment: two-hybrid; Matchmaker GAL4 Two-Hybrid System 3, pGBKT7 bait and pGADT7 prey in yeast strain AH109; growth on medium lacking Leu, Trp, His and Ade or supplemented with 2.5 mM 3-AT
T3 sequence: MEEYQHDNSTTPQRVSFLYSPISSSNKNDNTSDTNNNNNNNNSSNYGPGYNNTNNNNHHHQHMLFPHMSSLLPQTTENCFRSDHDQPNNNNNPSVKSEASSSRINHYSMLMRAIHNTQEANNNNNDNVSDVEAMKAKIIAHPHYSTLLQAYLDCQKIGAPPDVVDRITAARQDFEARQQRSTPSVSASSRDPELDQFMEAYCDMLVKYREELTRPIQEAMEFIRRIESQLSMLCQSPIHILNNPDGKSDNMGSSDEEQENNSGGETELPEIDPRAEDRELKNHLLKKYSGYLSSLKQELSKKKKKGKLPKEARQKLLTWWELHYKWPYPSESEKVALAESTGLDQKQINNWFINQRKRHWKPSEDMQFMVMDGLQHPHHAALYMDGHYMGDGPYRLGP

[4] = molecular target: T4, BLADE-ON-PETIOLE 1 (BOP1), yeast two-hybrid fusion (Arabidopsis thaliana) (UniProt Q9M1I7); experiment: as above
T4 sequence: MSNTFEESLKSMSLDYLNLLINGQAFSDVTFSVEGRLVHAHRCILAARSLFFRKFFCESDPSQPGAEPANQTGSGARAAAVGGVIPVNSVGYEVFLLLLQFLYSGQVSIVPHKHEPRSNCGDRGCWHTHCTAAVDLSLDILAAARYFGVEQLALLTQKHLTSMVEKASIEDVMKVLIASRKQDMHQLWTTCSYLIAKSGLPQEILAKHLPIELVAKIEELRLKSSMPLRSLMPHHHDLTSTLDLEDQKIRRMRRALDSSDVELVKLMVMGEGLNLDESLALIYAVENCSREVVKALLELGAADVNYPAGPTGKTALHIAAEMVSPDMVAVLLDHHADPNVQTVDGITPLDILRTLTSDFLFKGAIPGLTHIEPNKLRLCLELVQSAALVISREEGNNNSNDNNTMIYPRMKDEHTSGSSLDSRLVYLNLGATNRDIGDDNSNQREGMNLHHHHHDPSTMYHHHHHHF

[5] = molecular target: T5, PETAL LOSS (PTL), yeast two-hybrid fusion (Arabidopsis thaliana) (UniProt Q9LZS0); experiment: as above
T5 sequence: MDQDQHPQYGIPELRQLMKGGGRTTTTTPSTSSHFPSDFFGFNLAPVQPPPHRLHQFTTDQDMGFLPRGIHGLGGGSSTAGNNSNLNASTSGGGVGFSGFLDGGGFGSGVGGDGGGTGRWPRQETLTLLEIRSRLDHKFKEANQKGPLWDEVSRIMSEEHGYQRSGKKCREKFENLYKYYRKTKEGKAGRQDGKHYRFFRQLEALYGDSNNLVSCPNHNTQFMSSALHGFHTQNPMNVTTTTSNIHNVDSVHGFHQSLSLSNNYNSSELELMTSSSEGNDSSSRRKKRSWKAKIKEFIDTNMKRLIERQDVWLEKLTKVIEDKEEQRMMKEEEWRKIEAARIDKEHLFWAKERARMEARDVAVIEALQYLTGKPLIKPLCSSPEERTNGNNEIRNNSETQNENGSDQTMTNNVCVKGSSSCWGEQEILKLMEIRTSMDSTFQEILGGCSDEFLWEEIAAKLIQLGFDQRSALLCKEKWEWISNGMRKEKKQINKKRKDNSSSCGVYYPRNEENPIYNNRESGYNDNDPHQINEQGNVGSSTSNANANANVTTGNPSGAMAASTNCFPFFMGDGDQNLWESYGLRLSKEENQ

[6] = molecular target: T6, JAGGED (JAG), yeast two-hybrid fusion (Arabidopsis thaliana) (UniProt Q6S591); experiment: as above
T6 sequence: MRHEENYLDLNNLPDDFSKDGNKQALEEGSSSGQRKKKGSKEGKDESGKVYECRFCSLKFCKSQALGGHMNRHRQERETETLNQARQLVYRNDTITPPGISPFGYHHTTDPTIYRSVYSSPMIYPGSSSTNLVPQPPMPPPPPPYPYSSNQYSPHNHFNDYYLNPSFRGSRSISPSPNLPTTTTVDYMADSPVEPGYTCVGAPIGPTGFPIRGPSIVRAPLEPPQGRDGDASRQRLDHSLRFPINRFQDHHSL

[7] = molecular target: T7, BLADE-ON-PETIOLE 2 (BOP2), yeast two-hybrid fusion (Arabidopsis thaliana) (UniProt Q9ZVC2); experiment: as above
T7 sequence: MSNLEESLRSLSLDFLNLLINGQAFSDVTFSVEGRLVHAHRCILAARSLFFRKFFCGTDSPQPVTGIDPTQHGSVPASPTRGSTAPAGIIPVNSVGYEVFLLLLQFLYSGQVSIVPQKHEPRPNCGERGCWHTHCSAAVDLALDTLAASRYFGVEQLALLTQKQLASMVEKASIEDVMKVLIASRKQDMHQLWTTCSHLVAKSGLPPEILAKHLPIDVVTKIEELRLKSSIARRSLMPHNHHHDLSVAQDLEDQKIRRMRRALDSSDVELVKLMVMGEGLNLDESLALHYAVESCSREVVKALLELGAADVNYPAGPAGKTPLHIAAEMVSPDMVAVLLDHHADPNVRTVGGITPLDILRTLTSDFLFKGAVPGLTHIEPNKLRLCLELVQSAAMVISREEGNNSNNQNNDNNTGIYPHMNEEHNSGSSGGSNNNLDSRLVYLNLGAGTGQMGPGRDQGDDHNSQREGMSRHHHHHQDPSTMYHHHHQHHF

[8] = molecular target: HANABA TARANU (HAN), yeast two-hybrid fusion (Arabidopsis thaliana) (UniProt Q8LC79); experiment: as above

binding [1]: binds
B1: … (IND)-YFPC (protein, UniProt O81313 1-198)
chain: MENGMYKKKGVCDSCVSSKSRSNHSPKRSMMEPQPHHLLMDWNKANDLLTQEHAAFLNDPHHLMLDPPPETLIHLDEDEEYDEDMDAMKEMQYMIAVMQPVDIDPATVPKPNRRNVRISDDPQTVVARRRRERISEKIRILKRIVPGGAKMDTASMLDEAIRYTKFLKRQVRILQPHSQIGAPMANPSYLCYYHNSQP

binding [2]: binds
B2: PINHEAD (PNH) fused with a half of YFP (BiFC) (protein, UniProt Q9XGW1 1-988)
chain: MPIRQMKDSSETHLVIKTQPLKHHNPKTVQNGKIPPPSPSPVTVTTPATVTQSQASSPSPPSKNRSRRRNRGGRKSDQGDVCMRPSSRPRKPPPPSQTTSSAVSVATAGEIVAVNHQMQMGVRKNSNFAPRPGFGTLGTKCIVKANHFLADLPTKDLNQYDVTITPEVSSKSVNRAIIAELVRLYKESDLGRRLPAYDGRKSLYTAGELPFTWKEFSVKIVDEDDGIINGPKRERSYKVAIKFVARANMHHLGEFLAGKRADCPQEAVQILDIVLRELSVKRFCPVGRSFFSPDIKTPQRLGEGLESWCGFYQSIRPTQMGLSLNIDMASAAFIEPLPVIEFVAQLLGKDVLSKPLSDSDRVKIKKGLRGVKVEVTHRANVRRKYRVAGLTTQPTRELMFPVDENCTMKSVIEYFQEMYGFTIQHTHLPCLQVGNQKKASYLPMEACKIVEGQRYTKRLNEKQITALLKVTCQRPRDRENDILRTVQHNAYDQDPYAKEFGMNISEKLASVEARILPAPWLKYHENGKEKDCLPQVGQWNMMNKKMINGMTVSRWACVNFSRSVQENVARGFCNELGQMCEVSGMEFNPEPVIPIYSARPDQVEKALKHVYHTSMNKTKGKELELLLAILPDNNGSLYGDLKRICETELGLISQCCLTKHVFKISKQYLANVSLKINVKMGGRNTVLVDAISCRIPLVSDIPTIIFGADVTHPENGEESSPSIAAVVASQDWPEVTKYAGLVCAQAHRQELIQDLYKTWQDPVRGTVSGGMIRDLLISFRKATGQKPLRIIFYRDGVSEGQFYQVLLYELDAIRKACASLEPNYQPPVTFIVVQKRHHTRLFANNHRDKNSTDRSGNILPGTVVDTKICHPTEFDFYLCSHAGIQGTSRPAHYHVLWDENNFTADGIQSLTNNLCYTYARCTRSVSIVPPAYYAHLAAFRARFYLEPEIMQDNGSPGKKNTKTTTVGDVGVKPLPALKENVKRVMFYC

binding [3]: no binding | binding [4]: no binding | binding [5]: no binding | binding [6]: binds | binding [7]: no binding | binding [8]: binds
B3: HANABA TARANU (HAN), yeast two-hybrid fusion (protein, UniProt Q8LC79 1-295)
chain: MMQTPYTTSTQGQYCHSCGMFHHHSQSCCYNNNNNSNAGSYSMVFSMQNGGVFEQNGEDYHHSSSLVDCTLSLGTPSTRLCEEDEKRRRSTSSGASSCISNFWDLIHTKNNNSKTAPYNNVPSFSANKPSRGCSGGGGGGGGGGGGDSLLARRCANCDTTSTPLWRNGPRGPKSLCNACGIRFKKEERRTTAATGNTVVGAAPVQTDQYGHHNSGYNNYHAATNNNNNNGTPWAHHHSTQRVPCNYPANEIRFMDDYGSGVANNVESDGAHGGVPFLSWRLNVADRASLVHDFTR

binding [6]: no binding
B4: PETAL LOSS (PTL), yeast two-hybrid fusion (protein, UniProt Q9LZS0 1-591)
chain: MDQDQHPQYGIPELRQLMKGGGRTTTTTPSTSSHFPSDFFGFNLAPVQPPPHRLHQFTTDQDMGFLPRGIHGLGGGSSTAGNNSNLNASTSGGGVGFSGFLDGGGFGSGVGGDGGGTGRWPRQETLTLLEIRSRLDHKFKEANQKGPLWDEVSRIMSEEHGYQRSGKKCREKFENLYKYYRKTKEGKAGRQDGKHYRFFRQLEALYGDSNNLVSCPNHNTQFMSSALHGFHTQNPMNVTTTTSNIHNVDSVHGFHQSLSLSNNYNSSELELMTSSSEGNDSSSRRKKRSWKAKIKEFIDTNMKRLIERQDVWLEKLTKVIEDKEEQRMMKEEEWRKIEAARIDKEHLFWAKERARMEARDVAVIEALQYLTGKPLIKPLCSSPEERTNGNNEIRNNSETQNENGSDQTMTNNVCVKGSSSCWGEQEILKLMEIRTSMDSTFQEILGGCSDEFLWEEIAAKLIQLGFDQRSALLCKEKWEWISNGMRKEKKQINKKRKDNSSSCGVYYPRNEENPIYNNRESGYNDNDPHQINEQGNVGSSTSNANANANVTTGNPSGAMAASTNCFPFFMGDGDQNLWESYGLRLSKEENQ
